# Assay results as given in the supplement of paper PMC11880418.
# Structures can show the parent of a compound that is named as a salt. Some of the results follow. The data scatter; read single values as rough.
# Legend:
# Experiment in all cases: ALDHbr (CSC) cell proportion score relative to DMSO vehicle (ratio to DMSO); breast (SUM159) / gastric (MKN45) / pancreatic (PANC1) / colon cancer lines; ALDHbr cells have high ALDH activity and are rich in cancer stem cells (CSC); higher = more CSC (ALDHbr) cells remaining
# Conditions in all cases: 10 µM; 72 h
# [1] = system: MKN45
# [2] = system: PANC1
# [3] = system: SUM159
# [4] = system: T84
# 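Note: High-content imaging of ALDEFLUOR-stained cells with Hoechst-labelled nuclei in 384-well plates, triplicate wells, scored as Z-score against 0.1% DMSO vehicle, negative meaning fewer ALDHbr cells.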
SMILES,ALDHbr [1],ALDHbr [2],ALDHbr [3],ALDHbr [4]
O=C(CCCN1CCC(O)(c2ccc(Br)cc2)CC1)c1ccc(F)cc1 [Bromperidol],0.94,0.836,0.908,0.822
CN(C)CCC[C@@]1(c2ccc(F)cc2)OCc2cc(C#N)ccc21 [Escitalopram oxalate],0.956,0.86,1.35,1.12
CN1CCC(=C2c3ccccc3Sc3ccccc32)CC1 [Pimethixene maleate],0.945,1.08,0.604,0.896
CCc1cc(Cl)c(OC)c(C(=O)NC[C@@H]2CCCN2CC)c1O [S(-)Eticlopride hydrochloride],0.545,1.05,0.85,0.744
CN1CCC(OC(c2ccccc2)c2ccccc2)CC1 [Diphenylpyraline hydrochloride],1.12,0.944,1.04,0.969
CC(=O)Nc1ccc(OCC(O)CNC(C)C)cc1 (centres undefined) [Practolol],0.996,0.847,1.3,0.954
COc1cc2nc(N(C)CCCNC(=O)C3CCCO3)nc(N)c2cc1OC (centres undefined) [Alfuzosin hydrochloride],0.96,0.907,0.964,0.994
CCN(CC)CCc1nc(-c2ccccc2)no1 [Oxalamine citrate salt],0.896,0.777,0.491,0.908
CO/N=C(\C(=O)N[C@@H]1C(=O)N2C(C(=O)OC(C)OC(C)=O)=C(COC(N)=O)CS[C@H]12)c1ccco1 (some centres undefined) [Cefuroxime axetil],1.12,0.963,1.06,0.962
Cc1cccc(N(C)C(=S)Oc2ccc3ccccc3c2)c1 [Tolnaftate],0.302,0.777,0.889,0.837
CC1(C)O[C@@H]2C[C@H]3[C@@H]4CCC5=CC(=O)CC[C@]5(C)[C@@]4(F)[C@@H](O)C[C@]3(C)[C@]2(C(=O)CCl)O1 [Halcinonide],0.8,0.541,1.35,0.955
Nc1ccn([C@@H]2CS[C@H](CO)O2)c(=O)n1 [Lamivudine],1.07,0.859,1.12,1.05
Cc1ccc(N(CC2=NCCN2)c2cccc(O)c2)cc1 [Phentolamine hydrochloride],1.23,0.962,0.902,0.941
CC(C)NC[C@H](O)COc1cccc2ccccc12 [(S)-propranolol hydrochloride],1.29,1.04,1.33,1.03
COc1cc([S+](C)[O-])ccc1-c1nc2cccnc2[nH]1 (centres undefined) [Sulmazole],1.3,0.63,1.24,1.28
NS(=O)(=O)c1cc2c(cc1Cl)NC(C(Cl)Cl)NS2(=O)=O (centres undefined) [Trichlormethiazide],0.994,0.828,0.805,1.05
CC(=O)N(CC(O)CN(C(C)=O)c1c(I)c(C(=O)NCC(O)CO)c(I)c(C(=O)NCC(O)CO)c1I)c1c(I)c(C(=O)NCC(O)CO)c(I)c(C(=O)NCC(O)CO)c1I (centres undefined) [Iodixanol],0.934,0.941,1.02,0.914
CCC[C@@H]1C[C@@H](C(=O)N[C@@H]([C@H]2O[C@H](SC)[C@H](O)[C@@H](O)[C@H]2O)[C@@H](C)O)N(C)C1 [Lincomycin hydrochloride],1.03,0.503,1.08,0.934
NNc1nncc2ccccc12 [Hydralazine hydrochloride],1.39,1.02,1.32,0.868
CCn1cc(C(=O)O)c(=O)c2cc(F)c(N3CCNCC3)cc21 [Norfloxacin],0.467,0.726,0.99,0.63
Nc1ccn([C@H]2CC[C@@H](CO)O2)c(=O)n1 [Zalcitabine],1.28,0.937,1.7,1.1
OC(Cn1cncn1)(Cn1cncn1)c1ccc(F)cc1F [Fluconazole],1.1,0.951,1.11,0.851
Nc1nc(=O)c2nc(CNc3ccc(C(=O)N[C@@H](CCC(=O)O)C(=O)O)cc3)cnc2[nH]1 [Folic acid],1.06,0.884,1,0.939
CN(C/C=C/c1ccccc1)Cc1cccc2ccccc12 [Naftifine hydrochloride],0.951,0.953,0.986,0.834
CN1C(C)(C)CCCC1(C)C [Pempidine],0.883,0.997,0.997,0.971
Cc1cc(-c2ccccc2)nnc1NCCN1CCOCC1 [Minaprine dihydrochloride],1.04,0.863,0.956,0.972
